Measured values published in patent US20220267438A1 (Janssen / Centocor, published 2022).

How the values were obtained:
[1] = target: T1, human CD3 (CD3ε of the TCR/CD3 complex) on primary human pan T cells (human, UniProt P07766); assay: flow cytometry, pan T cells, donor D327645; estimated, fixed saturation point from bioinformatic extrapolation
T1 construct: whole, on cells; On T cells CD3ε stands in the whole TCR/CD3 complex
Experimental: Flow cytometry was used to evaluate the CD3 arm (i.e., CD3B376) binding of BGCB491 to CD3⁺ pan T cells from 7 different healthy human. Cell-based EC₅₀ for CD3B376 could not be determined due to lack of saturation kinetics at 1 hour (FIG. 26). Bioinformatic extrapolation was performed (FIG. 27) using the CD3B376×Null control antibody (i.e., GCDB381) molecule, which saturates within 2 μM top concentration dose-response to constrain the top of the non-linear regression curve to generate a full curve that enables estimation of ECₓ values (Table 21).

[2] = target: T2, BCMW37 (recombinant human BCMA antigen) (human, UniProt Q02223 1-54, limits assumed); assay: SPR, BCMA binding after thermal stress
T2 construct: also called BCMA BCMW37 chain; human BCMA (SPR antigen)
T2 sequence (looked up): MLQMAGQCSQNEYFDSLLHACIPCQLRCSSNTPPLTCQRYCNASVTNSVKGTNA

[3] = target: T3, human GPRC5D (G-protein coupled receptor family C group 5 member D) on cells (human, UniProt Q9NZD1 1-345); assay: cell-based or functional assay
[4] = target: T4, human BCMA (B cell maturation antigen, TNFRSF17) on cells (human, UniProt Q02223 1-184); assay: cell-based or functional assay
T4 sequence (looked up): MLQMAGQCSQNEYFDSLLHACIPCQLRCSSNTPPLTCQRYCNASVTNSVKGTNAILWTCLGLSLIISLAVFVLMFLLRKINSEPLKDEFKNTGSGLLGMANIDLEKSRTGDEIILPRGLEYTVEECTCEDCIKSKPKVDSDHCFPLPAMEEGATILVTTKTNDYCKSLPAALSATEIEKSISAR

[5] = target: T2, BCMW37 (recombinant human BCMA antigen); assay: SPR, BCMA binding after oxidation with metal
[6] = target: T5, CD3W200, recombinant CD3εγ heterodimer construct (human, UniProt P07766 22-118; P09693 23-103); assay: SPR
T5 construct: also called human CD3 (SPR antigen for BGCB491)

[7] = target: T2, BCMW37 (recombinant human BCMA antigen); assay: SPR, BCMA binding after pH 5.0 stress
[8] = target: T3, human GPRC5D (G-protein coupled …); assay: flow cytometry on K562 cells expressing human GPRC5D, 1 hr 37 C, Run 2
Experimental: FIGS. 9A-E. BGCB463 (circles) or negative control B23B251 (triangles) were all incubated with K562 cells expressing human GPRC5D (FIG. 9A), human BCMA (FIG. 9B), cynomolgus GPRC5D (FIG. 9C) or cynomolgus BCMA (FIG. 9D) for 1 hr at 37° C. at a starting concentration of 2 μM. After secondary detection with AF647-anti-human IgG, the MFI signal was analyzed to generate an EC₅₀ and EC₉₀ (FIG. 9E). Data are representative of two independent experiments.
The GPRC5D (i.e., GC5B680) and BCMA binding arms were assessed for cross-reactivity to cynomolgus monkey as part of the BGCB463 molecule, which uses the identical binding arms as BGCB491. Cross reactivity to cynomolgus monkeys was profiled for both target-binding scFv arms using FACS-based cell binding at 37° C. for 1 hour with K562 stably expressing human or cynomolgus monkey GPRC5D or BCMA. The cell-based EC₅₀ value for the GC5B680 scFv arm was approximately 30 nM against human GPRC5D-expressing cells and about 10-fold weaker (approximately 400 nM) on cynomolgus monkey GPRC5D-expressing cells.

[9] = target: T4, human BCMA (B cell maturation antigen, …); assay: flow cytometry, H929 GPRC5D KO cells, 1 h 37C; Run 2
Experimental: First, FACS-based binding for GPRC5D and BCMA binding arms of the trispecific molecule was determined by measuring the effective concentration (EC) range from a dose-response curve using a 4-parameter fit at 37° C. for 1 hr. This was assessed using an H929 suite of cells (WT, GPRC5D-KO, BCMA-KO, and GPRC5D/BCMA KO), and a similar MM.1R suite. Cell based EC₅₀ is approximately 13 nM for WT H929 (FIGS. 2A-2D, Table 7) and 2.4 nM for WT MM.1R (FIGS. 3A-3D, Table 8). A clear avidity affect is observed as EC₅₀ and Bmax are both reduced in GPRC5D-KO and BCMA-KO lines which test monovalent binding of target binding arms (Table 7). Next, cell-based EC₅₀ was determined for the CD3-binding Fab arm using purified Pan T cells from three random donors. […] Next, dose responsive binding was assessed at 4° C. to remove any potential biological effects. As shown in FIGS. 5A-5C, binding is stronger (50-100 nM) at 4° C., compared to 37° C., which may indicate internalization. Additionally, two expression lots of BGCB463 (BGCB463.003 from transient transfection and BGCB463.004 from a stable transfection pool), were directly compared with binding to H929, MM.1R, and Pan T cells and no differences were noted (FIGS. 6A-6C).

[10] = target: T1, human CD3 (CD3ε of the TCR/CD3 complex) …; assay: flow cytometry, human pan T cells, Donor 1, 1 h 37C; Run 5
Experimental: For binding of BGCB463 to human and cynomolgus Pan T cells, three human donors (Hemacare) were selected, quickly thawed, resuspended, and aliquoted into a 96-well plate at 1×10⁶ cells/mL. Cells were then washed, Fc blocked if necessary (Innovex), and stained with viability dye (Invitrogen). BGCB463 and its corresponding isotype (B23B251) were diluted in complete media to an initial concentration of 2 μM and 1:3 serial dilutions in duplicate were performed for a dose-response curve. The cells were incubated with molecules at 4° C. or 37° C. for 1 hour. When necessary, incubation with 90% human serum (Sigma) was also performed as described above.
First, FACS-based binding for GPRC5D and BCMA binding arms of the trispecific molecule was determined by measuring the effective concentration (EC) range from a dose-response curve using a 4-parameter fit at 37° C. for 1 hr. This was assessed using an H929 suite of cells (WT, GPRC5D-KO, BCMA-KO, and GPRC5D/BCMA KO), and a similar MM.1R suite. Cell based EC₅₀ is approximately 13 nM for WT H929 (FIGS. 2A-2D, Table 7) and 2.4 nM for WT MM.1R (FIGS. 3A-3D, Table 8). […] Next, cell-based EC₅₀ was determined for the CD3-binding Fab arm using purified Pan T cells from three random donors. […] Next, dose responsive binding was assessed at 4° C. to remove any potential biological effects. […]

T3 sequence (Q9NZD1 whole entry): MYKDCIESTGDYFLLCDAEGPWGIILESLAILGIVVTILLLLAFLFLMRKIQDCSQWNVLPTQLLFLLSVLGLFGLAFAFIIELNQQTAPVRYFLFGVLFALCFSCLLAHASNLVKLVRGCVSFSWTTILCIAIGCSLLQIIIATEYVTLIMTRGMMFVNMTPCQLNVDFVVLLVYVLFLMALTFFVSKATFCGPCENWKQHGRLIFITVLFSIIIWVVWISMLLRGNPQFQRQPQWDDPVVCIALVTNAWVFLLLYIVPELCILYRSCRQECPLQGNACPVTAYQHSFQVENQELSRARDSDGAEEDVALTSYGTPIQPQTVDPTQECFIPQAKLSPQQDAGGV

B1: BGCB491 (other)
heavy: QVQLQQSGPRLVRPSQTLSLTCAISGDSVFNNNAAWSWIRQSPSRGLEWLGRTYYRSKWLYDYAVSVKSRITVNPDTSRNQFTLQLNSVTPEDTALYYCARGYSSSFDYWGQGTLVTVSSASTKGPSVFPLAPSSKSTSGGTAALGCLVKDYFPEPVTVSWNSGALTSGVHTFPAVLQSSGLYSLSSVVTVPSSSLGTQTYICNVNHKPSNTKVDKKVEPKSCDKTHTCPPCPAPEAAGGPSVFLFPPKPKDTLMISRTPEVTCVVVSVSHEDPEVKFNWYVDGVEVHNAKTKPREEQYNSTYRVVSVLTVLHQDWLNGKEYKCKVSNKALPAPIEKTISKAKGQPREPQVYTLPPSREEMTKNQVSLSCAVKGFYPSDIAVEWESNGQPENNYKTTPPVLDSDGSFFLVSKLTVDKSRWQQGNVFSCSVMHEALHNRFTQKSLSLSPGKGGGGSGGGGSGGGGSGGGGS[letters of about 100 residues not shown]QFPHTFGQGTKLEIKGGSEGKSSGSGSESKSTGGSQVTLKESGPVLVKPTETLTLTCTVSGFSLTNIRMSVSWIRQPPGKALEWLAHIFSNDEKSYSTSLKSRLTISRDTSKSQVVLTLTNVDPVDTATYYCARMRLPYGMDVWGQGTTVTVSS
light: QSALTQPASVSGSPGQSITISCTGTSSNIGTYKFVSWYQQHPDKAPKVLLYEVSKRPSGVSSRFSGSKSGNTASLTISGLQAEDQADYHCVSYAGSGTLLFGGGTKLTVLGQPKAAPSVTLFPPSSEELQANKATLVCLISDFYPGAVTVAWKADSSPVKAGVETTTPSKQSNNKYAASSYLSLTPEQWKSHRSYSCQVTHEGSTVEKTVAPTECS
chain: EIVLTQSPGTLSLSPGERATLSCRASQSISSSFLTWYQQKPGQAPRLLIYGASSRATGIPDRFSGGGSGTDFTLTISRLEPEDFAVYYCQHYGSSPMYTFGQGTKLEIKGGSEGKSSGSGSESKSTGGS[letters of about 100 residues not shown]DEGYSSGHYYGMDVWGQGTTVTVSSEPKSSDKTHTCPPCPAPEAAGGPSVFLFPPKPKDTLMISRTPEVTCVVVSVSHEDPEVKFNWYVDGVEVHNAKTKPREEQYNSTYRVVSVLTVLHQDWLNGKEYKCKVSNKALPAPIEKTISKAKGQPREPQVYTLPPSREEMTKNQVSLWCLVKGFYPSDIAVEWESNGQPENNYKTTPPVLDSDGSFFLYSKLTVDKSRWQQGNVFSCSVMHEALHNHYTQKSLSLSPGK
notes: Trispecific IgG1 antibody (L234A, L235A, D265S); Heavy chain 1 = anti-CD3 (CD3B376) Fab heavy chain, hole and RF mutations, with C-terminal anti-GPRC5D scFv (GC5B680); Heavy chain 2 = anti-BCMA scFv (BCMB519) - Fc knob; also called JNJ-79635322; BCMA×GPRC5D×CD3 trispecific mAb
For B1, the EC50 [1] was 3360 nM, the Kd [2] was 0.281 nM and the “CD3 T-cell activation EC50, H929-BCMA-KO” value [3] was 4.13 nM. For the same binder, the “Cytotoxicity EC50, H929-BCMA-KO, 72 hours, 4 T-cell donors” value [3] was 4.79 nM, the “CD3 T-cell activation EC50, H929-GPRC5D-KO” value [4] was 0.487 nM and the “Cytotoxicity EC50, H929-GPRC5D-KO, 72 hours, 4 T-cell donors” value [4] was 0.33 nM. For the same binder, the Kd [5] was 0.215 nM, the Kd [6] was 25.1 nM and the Kd [7] was 0.207 nM.

B2: BGCB463 (other)
heavy: QVQLQQSGPRLVRPSQTLSLTCAISGDSVFNNNAAWSWIRQSPSRGLEWLGRTYYRSKWLYDYAVSVKSRITVNPDTSRNQFTLQLNSVTPEDTALYYCARGYSSSFDYWGQGTLVTVSSASTKGPSVFPLAPSSKSTSGGTAALGCLVKDYFPEPVTVSWNSGALTSGVHTFPAVLQSSGLYSLSSVVTVPSSSLGTQTYICNVNHKPSNTKVDKKVEPKSCDKTHTCPPCPAPEAAGGPSVFLFPPKPKDTLMISRTPEVTCVVVSVSHEDPEVKFNWYVDGVEVHNAKTKPREEQYNSTYRVVSVLTVLHQDWLNGKEYKCKVSNKALPAPIEKTISKAKGQPREPQVYTLPPSREEMTKNQVSLSCAVKGFYPSDIAVEWESNGQPENNYKTTPPVLDSDGSFFLVSKLTVDKSRWQQGNVFSCSVMHEALHNRFTQKSLSLSPGK
light: QSALTQPASVSGSPGQSITISCTGTSSNIGTYKFVSWYQQHPDKAPKVLLYEVSKRPSGVSSRFSGSKSGNTASLTISGLQAEDQADYHCVSYAGSGTLLFGGGTKLTVLGQPKAAPSVTLFPPSSEELQANKATLVCLISDFYPGAVTVAWKADSSPVKAGVETTTPSKQSNNKYAASSYLSLTPEQWKSHRSYSCQVTHEGSTVEKTVAPTECS
chain: [letters of about 100 residues not shown]QFPHTFGQGTKLEIKGGSEGKSSGSGSESKSTGGSQVTLKESGPVLVKPTETLTLTCTVSGFSLTNIRMSVSWIRQPPGKALEWLAHIFSNDEKSYSTSLKSRLTISRDTSKSQVVLTLTNVDPVDTATYYCARMRLPYGMDVWGQGTTVTVSSEPKSSDKTHTCPPCPAPEAAGGPSVFLFPPKPKDTLMISRTPEVTCVVVSVSHEDPEVKFNWYVDGVEVHNAKTKPREEQYNSTYRVVSVLTVLHQDWLNGKEYKCKVSNKALPAPIEKTISKAKGQPREPQVYTLPPSREEMTKNQVSLWCLVKGFYPSDIAVEWESNGQPENNYKTTPPVLDSDGSFFLYSKLTVDKSRWQQGNVFSCSVMHEALHNHYTQKSLSLSPGKGGSEGKSSGSGSESKSTGGSEIVLTQSPGTLSLSPGERATLSCRASQSISSSFLTWYQQKPGQAPRLLIYGASSRATGIPDRFSGGGSGTDFTLTISRLEPEDFAVYYCQHYGSSPMYTFGQGTKLEIKGGSEGKSSGSGSESKSTGGS[letters of about 100 residues not shown]DEGYSSGHYYGMDVWGQGTTVTVSS
notes: Trispecific IgG1 antibody (L234A, L235A, D265S); Heavy chain 1 = anti-CD3 (CD3B376) Fab heavy chain with hole and RF mutations; also called BGCB463.003; BGCB463.004
For B2, the EC50 [8] was 49.7 nM, the EC50 [9] was 63.9 nM and the EC50 [10] was 103 nM.
